# Measurements: PubChem BioAssay AID463173 (ICCB-Longwood Screening Facility, Harvard Medical School, 2010)
# The campaign covered roughly 52,000 compounds. About 1,700 (3.3%) were called active. Rule as the data show it: active = survival mostly below about 52% (no sharp cut-off); inactive = mostly above about 56%. The list shows a part of the results.
# Test system: Wild type
# Test: growth inhibition of S. aureus wild type versus tarO mutant, primary screen, teichoic acid synthesis inhibitors, RN4220, OD600 (AID 463173)
# Conditions: S. aureus RN4220 wild type/DeltatarO growth, OD600, 18 h, hits give low values, screened at 18.75 µg/mL (by protocol)
row,Compound,survival
1,CCCC(=O)N(c1ccc2oc3c(c2c1)CCCC3)S(=O)(=O)c1cc(C)ccc1C,inactive: 61%
2,O=C1CC(c2nc3ccccc3[nH]2)CN1c1cccc(Cl)c1 (stereo not given),inactive: 89%
3,Nc1nnc2c(n1)[nH]c1ccccc12,inactive: 75%
4,COc1cccc(CSc2nc3cc(C(=O)NC4CCCC4)ccc3c(=O)n2Cc2ccccc2)c1,inactive: 59%
5,COC(=O)c1ccc(CSc2nc3c([nH]c4ccccc43)c(=O)n2-c2ccc(Cl)cc2)o1,inactive: 121%
6,CCCCNc1nc2c(c(=O)n(Cc3ccc(Cl)cc3)c(=O)n2C)n1C,inactive: 70%
7,COc1ccc(CN2CCN(Cc3cc(=O)oc4cc(C)ccc34)CC2)c(OC)c1OC,inactive: 119%
8,COc1ccc(N2CCN(CCN3CCCCC3)CC2)cc1,inactive: 119%
9,O=C(CSc1nc2ccccc2n1Cc1ccccc1)N1CCN(c2ccc(F)cc2)CC1,inactive: 78%
10,COc1ccc(-n2cc(C(=O)NCc3ccccc3)c3ccccc3c2=O)cc1,inactive: 85%
11,O=C(NCCc1nc2ccccc2n1Cc1ccc(F)cc1)c1ccco1,inactive: 81%
12,COc1ccc(CNC(=O)c2ccc(CS(=O)(=O)c3ccccc3OC)o2)cc1,inactive: 76%
13,CCOc1ccc(CCNC(=O)Cn2nc(-c3ccc(C)cc3)ccc2=O)cc1OCC,inactive: 68%
14,Cc1ccc(C)c(-c2[nH]c3c(c2-c2c(-n4cccc4)n(C)c(=O)[nH]c2=O)c(=O)[nH]c(=O)n3C)c1,inactive: 88%
15,CCN(CC)S(=O)(=O)c1ccc2c(c1)N(CC(=O)N1CCN(c3ccc(F)cc3)CC1)C(=O)CO2,inactive: 110%
16,Cc1ccc(-c2nc(CCNC(=O)C(=O)Nc3ccc(C)cc3C)cs2)cc1,inactive: 53%
17,COc1cc(CN2CCN(S(=O)(=O)c3ccccc3)CC2)cc(OC)c1O,inactive: 71%
18,CCc1ccccc1NC(=O)C1=C(C)C(=O)OC12CCCCCC2,inactive: 49%
19,O=C(CC1COc2ccccc2O1)NCc1ccccc1 (stereo not given),inactive: 105%
20,O=C(CNS(=O)(=O)c1cccs1)N1CCN(c2cccc(C(F)(F)F)c2)CC1,inactive: 89%
21,COc1cc(NC(=O)CSc2ncc(S(=O)(=O)c3ccc(Br)cc3)c(=O)[nH]2)cc(OC)c1,inactive: 84%
22,Cc1c2cnn(CC(=O)NCCc3ccccc3)c(=O)c2c(C)n1Cc1ccccc1,inactive: 96%
23,CCC(C)(C)n1nnnc1C(c1cccnc1)N1CCCC(C)C1 (stereo not given),inactive: 121%
24,Cc1cccc(NC(=O)C(=O)NCC(c2ccc3c(c2)OCO3)N2CCN(C)CC2)c1C (stereo not given),inactive: 71%
25,COc1ccc(OC)c(NC(=O)c2cccn2-c2nnc(N3CCCCC3)s2)c1,inactive: 59%
